Test results taken from the supplement of paper PMC10441789.
This is one part of the list. Antibody binding of pooled human sera (four to six donors per pool; dilution not stated) to peptides of the Trypanosoma cruzi antigen TSSA on microarrays. Quantile-normalised fluorescence in arbitrary units, mean of duplicate arrays; higher = more binding. No active / inactive call. The uninfected pools are read here as the healthy donors of the same country. The strongest signals lie near the top of the scale (about 60,000).

Columns and labels:
Assay in all cases: antibody binding signal (normalised fluorescence) (arbitrary fluorescence units); higher = stronger serum antibody binding to peptide
[1] = tested on: pooled sera of chronic Chagas disease patients, Argentina
Method: (§1)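 Microarray of 15-residue peptides over residues 30-55 of Trypanosoma cruzi TSSAII, each with 1 to 10 substitutions at naturally variable positions, probed with one serum pool per country.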

[2] = tested on: pooled sera of chronic Chagas disease patients, Bolivia
Method: as §1

[3] = tested on: pooled sera of chronic Chagas disease patients, Brazil
Method: as §1

[4] = tested on: pooled sera of chronic Chagas disease patients, Colombia
Method: as §1

[5] = tested on: pooled sera of chronic Chagas disease patients, Mexico
Method: as §1

[6] = tested on: pooled sera of chronic Chagas disease patients, USA
Method: as §1

[7] = tested on: pooled sera of uninfected people, Argentina
Method: as §1

[8] = tested on: pooled sera of uninfected people, Bolivia
Method: as §1

[9] = tested on: pooled sera of uninfected people, Brazil
Method: as §1

[10] = tested on: pooled sera of uninfected people, Colombia
Method: as §1

[11] = tested on: pooled sera of uninfected people, Mexico
Method: as §1

[12] = tested on: pooled sera of uninfected people, USA
Method: as §1

## TENKTAAGEAPSPPG
[1]
  antibody binding signal: 25100
[2]
  antibody binding signal: 518
[3]
  antibody binding signal: 6130
[4]
  antibody binding signal: 192
[5]
  antibody binding signal: 225
[6]
  antibody binding signal: 9020
[7]
  antibody binding signal: 180
[8]
  antibody binding signal: 124
[9]
  antibody binding signal: 215
[10]
  antibody binding signal: 180
[11]
  antibody binding signal: 129
[12]
  antibody binding signal: 128

## DNKAATGETPSPPGA
[1]
  antibody binding signal: 2220
[2]
  antibody binding signal: 4720
[3]
  antibody binding signal: 21200
[4]
  antibody binding signal: 193
[5]
  antibody binding signal: 168
[6]
  antibody binding signal: 11700
[7]
  antibody binding signal: 147
[8]
  antibody binding signal: 221
[9]
  antibody binding signal: 190
[10]
  antibody binding signal: 139
[11]
  antibody binding signal: 166
[12]
  antibody binding signal: 673

## GKENKTATGGTPSPS
[1]
  antibody binding signal: 2870
[2]
  antibody binding signal: 416
[3]
  antibody binding signal: 7830
[4]
  antibody binding signal: 5540
[5]
  antibody binding signal: 5100
[6]
  antibody binding signal: 13500
[7]
  antibody binding signal: 381
[8]
  antibody binding signal: 123
[9]
  antibody binding signal: 133
[10]
  antibody binding signal: 187
[11]
  antibody binding signal: 157
[12]
  antibody binding signal: 109

## SGTEKKAATGGTPSQ
[1]
  antibody binding signal: 2170
[2]
  antibody binding signal: 811
[3]
  antibody binding signal: 1560
[4]
  antibody binding signal: 1110
[5]
  antibody binding signal: 1400
[6]
  antibody binding signal: 1970
[7]
  antibody binding signal: 283
[8]
  antibody binding signal: 601
[9]
  antibody binding signal: 719
[10]
  antibody binding signal: 1330
[11]
  antibody binding signal: 171
[12]
  antibody binding signal: 203

## KPATGGAPSPSGASS
[1]
  antibody binding signal: 775
[2]
  antibody binding signal: 2320
[3]
  antibody binding signal: 469
[4]
  antibody binding signal: 262
[5]
  antibody binding signal: 2490
[6]
  antibody binding signal: 1130
[7]
  antibody binding signal: 291
[8]
  antibody binding signal: 976
[9]
  antibody binding signal: 170
[10]
  antibody binding signal: 122
[11]
  antibody binding signal: 98.3
[12]
  antibody binding signal: 282

## NKAAAGEAPSQSGAS
[1]
  antibody binding signal: 636
[2]
  antibody binding signal: 21200
[3]
  antibody binding signal: 29100
[4]
  antibody binding signal: 203
[5]
  antibody binding signal: 234
[6]
  antibody binding signal: 10800
[7]
  antibody binding signal: 373
[8]
  antibody binding signal: 1020
[9]
  antibody binding signal: 305
[10]
  antibody binding signal: 221
[11]
  antibody binding signal: 388
[12]
  antibody binding signal: 800

## KKTAAGETPSQPGAS
[1]
  antibody binding signal: 237
[2]
  antibody binding signal: 573
[3]
  antibody binding signal: 19400
[4]
  antibody binding signal: 250
[5]
  antibody binding signal: 241
[6]
  antibody binding signal: 1130
[7]
  antibody binding signal: 228
[8]
  antibody binding signal: 370
[9]
  antibody binding signal: 133
[10]
  antibody binding signal: 457
[11]
  antibody binding signal: 97
[12]
  antibody binding signal: 313

## GKEKKPATGGAPSQP
[1]
  antibody binding signal: 2420
[2]
  antibody binding signal: 392
[3]
  antibody binding signal: 6440
[4]
  antibody binding signal: 1510
[5]
  antibody binding signal: 1830
[6]
  antibody binding signal: 3020
[7]
  antibody binding signal: 209
[8]
  antibody binding signal: 242
[9]
  antibody binding signal: 101
[10]
  antibody binding signal: 95.1
[11]
  antibody binding signal: 99.8
[12]
  antibody binding signal: 302

## PPSGKENKTATGGTP
[1]
  antibody binding signal: 4820
[2]
  antibody binding signal: 547
[3]
  antibody binding signal: 3360
[4]
  antibody binding signal: 1770
[5]
  antibody binding signal: 2590
[6]
  antibody binding signal: 3880
[7]
  antibody binding signal: 2690
[8]
  antibody binding signal: 1320
[9]
  antibody binding signal: 133
[10]
  antibody binding signal: 561
[11]
  antibody binding signal: 274
[12]
  antibody binding signal: 274

## NKPAAGGAPSPPGAS
[1]
  antibody binding signal: 215
[2]
  antibody binding signal: 410
[3]
  antibody binding signal: 5600
[4]
  antibody binding signal: 1580
[5]
  antibody binding signal: 235
[6]
  antibody binding signal: 1290
[7]
  antibody binding signal: 755
[8]
  antibody binding signal: 1120
[9]
  antibody binding signal: 329
[10]
  antibody binding signal: 666
[11]
  antibody binding signal: 170
[12]
  antibody binding signal: 1700

## ISTPPSGKENKTATG
[1]
  antibody binding signal: 14800
[2]
  antibody binding signal: 5520
[3]
  antibody binding signal: 11500
[4]
  antibody binding signal: 975
[5]
  antibody binding signal: 3110
[6]
  antibody binding signal: 3660
[7]
  antibody binding signal: 2520
[8]
  antibody binding signal: 1190
[9]
  antibody binding signal: 181
[10]
  antibody binding signal: 580
[11]
  antibody binding signal: 365
[12]
  antibody binding signal: 424

## PPSGTDNKAATGETP
[1]
  antibody binding signal: 37200
[2]
  antibody binding signal: 30400
[3]
  antibody binding signal: 42700
[4]
  antibody binding signal: 1010
[5]
  antibody binding signal: 886
[6]
  antibody binding signal: 12800
[7]
  antibody binding signal: 482
[8]
  antibody binding signal: 617
[9]
  antibody binding signal: 893
[10]
  antibody binding signal: 182
[11]
  antibody binding signal: 183
[12]
  antibody binding signal: 215

## TDKKPAAGGAPSQSG
[1]
  antibody binding signal: 409
[2]
  antibody binding signal: 158
[3]
  antibody binding signal: 461
[4]
  antibody binding signal: 5000
[5]
  antibody binding signal: 318
[6]
  antibody binding signal: 382
[7]
  antibody binding signal: 207
[8]
  antibody binding signal: 736
[9]
  antibody binding signal: 478
[10]
  antibody binding signal: 131
[11]
  antibody binding signal: 115
[12]
  antibody binding signal: 178

## GKDKKAATGGTPSQS
[1]
  antibody binding signal: 422
[2]
  antibody binding signal: 235
[3]
  antibody binding signal: 197
[4]
  antibody binding signal: 625
[5]
  antibody binding signal: 1190
[6]
  antibody binding signal: 813
[7]
  antibody binding signal: 211
[8]
  antibody binding signal: 92.1
[9]
  antibody binding signal: 182
[10]
  antibody binding signal: 157
[11]
  antibody binding signal: 138
[12]
  antibody binding signal: 92.5

## PSGKEKKPAAGGAPS
[1]
  antibody binding signal: 9280
[2]
  antibody binding signal: 2200
[3]
  antibody binding signal: 8060
[4]
  antibody binding signal: 10800
[5]
  antibody binding signal: 11400
[6]
  antibody binding signal: 7870
[7]
  antibody binding signal: 332
[8]
  antibody binding signal: 355
[9]
  antibody binding signal: 118
[10]
  antibody binding signal: 164
[11]
  antibody binding signal: 88
[12]
  antibody binding signal: 189

## KAATGGTPSQPGASS
[1]
  antibody binding signal: 439
[2]
  antibody binding signal: 252
[3]
  antibody binding signal: 590
[4]
  antibody binding signal: 882
[5]
  antibody binding signal: 277
[6]
  antibody binding signal: 217
[7]
  antibody binding signal: 468
[8]
  antibody binding signal: 103
[9]
  antibody binding signal: 205
[10]
  antibody binding signal: 116
[11]
  antibody binding signal: 336
[12]
  antibody binding signal: 126

## ENKAAAGGAPSPSGA
[1]
  antibody binding signal: 494
[2]
  antibody binding signal: 1420
[3]
  antibody binding signal: 944
[4]
  antibody binding signal: 5050
[5]
  antibody binding signal: 374
[6]
  antibody binding signal: 829
[7]
  antibody binding signal: 325
[8]
  antibody binding signal: 142
[9]
  antibody binding signal: 231
[10]
  antibody binding signal: 265
[11]
  antibody binding signal: 196
[12]
  antibody binding signal: 388

## ENKAATGGTPSQSGA
[1]
  antibody binding signal: 437
[2]
  antibody binding signal: 2080
[3]
  antibody binding signal: 602
[4]
  antibody binding signal: 728
[5]
  antibody binding signal: 436
[6]
  antibody binding signal: 389
[7]
  antibody binding signal: 285
[8]
  antibody binding signal: 145
[9]
  antibody binding signal: 736
[10]
  antibody binding signal: 212
[11]
  antibody binding signal: 331
[12]
  antibody binding signal: 165

## SGKEKKPATGGAPSP
[1]
  antibody binding signal: 4470
[2]
  antibody binding signal: 863
[3]
  antibody binding signal: 5310
[4]
  antibody binding signal: 3080
[5]
  antibody binding signal: 3710
[6]
  antibody binding signal: 5100
[7]
  antibody binding signal: 293
[8]
  antibody binding signal: 596
[9]
  antibody binding signal: 87.5
[10]
  antibody binding signal: 117
[11]
  antibody binding signal: 97.7
[12]
  antibody binding signal: 235

## KDNKTAAGEAPSQSG
[1]
  antibody binding signal: 910
[2]
  antibody binding signal: 5110
[3]
  antibody binding signal: 5850
[4]
  antibody binding signal: 1970
[5]
  antibody binding signal: 213
[6]
  antibody binding signal: 4560
[7]
  antibody binding signal: 462
[8]
  antibody binding signal: 178
[9]
  antibody binding signal: 170
[10]
  antibody binding signal: 247
[11]
  antibody binding signal: 111
[12]
  antibody binding signal: 161

## TPPSGKEKKAATGGT
[1]
  antibody binding signal: 5590
[2]
  antibody binding signal: 257
[3]
  antibody binding signal: 546
[4]
  antibody binding signal: 691
[5]
  antibody binding signal: 16700
[6]
  antibody binding signal: 1230
[7]
  antibody binding signal: 258
[8]
  antibody binding signal: 272
[9]
  antibody binding signal: 478
[10]
  antibody binding signal: 291
[11]
  antibody binding signal: 85.5
[12]
  antibody binding signal: 157

## GTDKKAAAGEAPSPP
[1]
  antibody binding signal: 559
[2]
  antibody binding signal: 328
[3]
  antibody binding signal: 10800
[4]
  antibody binding signal: 2990
[5]
  antibody binding signal: 839
[6]
  antibody binding signal: 12000
[7]
  antibody binding signal: 140
[8]
  antibody binding signal: 264
[9]
  antibody binding signal: 102
[10]
  antibody binding signal: 79.9
[11]
  antibody binding signal: 249
[12]
  antibody binding signal: 151

## TSSTPPSGKDNKTAT
[1]
  antibody binding signal: 14200
[2]
  antibody binding signal: 11500
[3]
  antibody binding signal: 6930
[4]
  antibody binding signal: 2570
[5]
  antibody binding signal: 20400
[6]
  antibody binding signal: 2810
[7]
  antibody binding signal: 351
[8]
  antibody binding signal: 474
[9]
  antibody binding signal: 161
[10]
  antibody binding signal: 247
[11]
  antibody binding signal: 126
[12]
  antibody binding signal: 190

## TEKKTAAGEAPSQPG
[1]
  antibody binding signal: 7320
[2]
  antibody binding signal: 21800
[3]
  antibody binding signal: 37300
[4]
  antibody binding signal: 592
[5]
  antibody binding signal: 569
[6]
  antibody binding signal: 7750
[7]
  antibody binding signal: 314
[8]
  antibody binding signal: 278
[9]
  antibody binding signal: 262
[10]
  antibody binding signal: 1550
[11]
  antibody binding signal: 261
[12]
  antibody binding signal: 188

## KKAATGETPSQPGAS
[1]
  antibody binding signal: 1030
[2]
  antibody binding signal: 878
[3]
  antibody binding signal: 31600
[4]
  antibody binding signal: 129
[5]
  antibody binding signal: 141
[6]
  antibody binding signal: 7670
[7]
  antibody binding signal: 351
[8]
  antibody binding signal: 349
[9]
  antibody binding signal: 120
[10]
  antibody binding signal: 298
[11]
  antibody binding signal: 79.2
[12]
  antibody binding signal: 381
